Experimental data: PubChem BioAssay AID485344 (National Center for Advancing Translational Sciences (NCATS), 2010)
Screen size: about 340,000 compounds; about 6,900 (2%) were called active. No stated cut-off is given here; in the data, active means inhibition above about 30%; inactive means below that, where a call was filed. Only a part is listed here, and it is no random draw. Entries without a call were filed so in the source.

Each compound was assayed against D(2) dopamine receptor (Homo sapiens) (UniProt P14416) (assay: HTS Assay for Allosteric Antagonists of the Human D2 Dopamine Receptor: Primary Screen for Antagonists). Conditions: HEK293 TREx D2 cells, calcium flux, dopamine EC80; at 10 µM; stronger effect = higher value.
Sequence of UniProt P14416 (P14416 whole entry, looked up): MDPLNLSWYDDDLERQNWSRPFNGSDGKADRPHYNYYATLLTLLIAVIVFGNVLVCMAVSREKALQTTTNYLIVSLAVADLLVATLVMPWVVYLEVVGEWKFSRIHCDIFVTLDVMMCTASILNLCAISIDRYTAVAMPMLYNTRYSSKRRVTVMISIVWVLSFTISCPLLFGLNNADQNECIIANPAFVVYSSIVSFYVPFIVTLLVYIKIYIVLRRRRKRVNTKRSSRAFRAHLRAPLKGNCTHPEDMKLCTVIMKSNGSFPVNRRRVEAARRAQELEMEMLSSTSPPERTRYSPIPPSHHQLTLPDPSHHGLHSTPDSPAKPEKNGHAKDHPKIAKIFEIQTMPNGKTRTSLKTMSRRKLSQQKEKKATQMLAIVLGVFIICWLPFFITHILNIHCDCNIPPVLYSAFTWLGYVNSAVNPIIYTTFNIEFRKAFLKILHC
How it was run: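 Measurement of antagonist activity uses fluorescent calcium dye in inducible HEK293 T-REx D2 cells: 10 s baseline, compound addition with 180 s read, EC80 dopamine addition with a further 180 s read.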
Further: 0% is about no effect.

SMILES	inhibition
Cc1ccccc1C(=O)NCCc1sc(-c2ccc(Cl)cc2)nc1C	17.8%
COc1ccc(CNC(=O)Cc2csc3nc(-c4ccc(F)cc4)cn23)cc1	-14.6%
Cc1[nH]n2c(=O)c3c(nc2c1-c1ccc(Cl)cc1)CCC3	active: 74.8%
COc1ccc(-c2nc(SCC(=O)NC3CCCC3)c(-c3ccc(C)cc3)[nH]2)cc1OC	15.1%
CCOc1ccc(NC(=O)C(=O)NCC(c2cccnc2)N2CCc3ccccc32)cc1 (stereo not drawn)	-0.149%
COc1ccc(C2CC(=O)N(CC(=O)Nc3ccc(C)c(Cl)c3)c3ccccc3S2)cc1OC (stereo not drawn)	12.2%
CCOC(=O)C1CCCN(S(=O)(=O)c2ccc3c(c2)oc(=O)n3C)C1 (stereo not drawn)	13.9%
COc1ccc(N(Cc2cccs2)C(=O)Nc2cccc(Cl)c2)cc1	10.1%
COc1cccc(NC(=O)CCc2c(C)nc3ncnn3c2C)c1	-19.4%
Cc1ccccc1NC(=O)CCN1C(=O)c2ccccc2Sc2ncccc21	20.2%
COc1ccc(CNC(=O)c2cnc3sc(N4CCCC4)nn3c2=O)c(OC)c1	9.89%
CCc1ccc(Nc2nnc(-n3nc(C)cc3C)c3ccccc23)cc1	19.3%
CCCCNC(=O)CSc1nc2cc3c(cc2c(=O)n1CCCCCC(=O)NCc1ccc(OC)cc1)OCO3	21.8%
Cc1ccc(NC(=O)CN2C(=O)COc3ccc(S(=O)(=O)NC4CCCC4)cc32)c(Cl)c1	1.81%
CCOC(=O)c1ccc(NC(=O)N2CCN(Cc3ccccc3)CC2)cc1	active: 43.6%
Clc1cccc(N2CCN(CCNc3nc4ccccc4n4cnnc34)CC2)c1	active: 41.8%
COc1ccc(-c2cn3c(n2)sc2cc(C(=O)NCc4cccc(F)c4)ccc23)cc1	5.26%
Cc1ccc(NC(=O)Cn2c(=O)n(Cc3ccc4c(c3)OCO4)c(=O)c3ccccc32)cc1	-13.9%
Cc1ccccc1-c1cc2nccc(-c3cc(Cl)ccc3O)n2n1	-8.08%
Cc1ccc(C(=O)c2cn(Cc3ccccc3C)c3nc(C)ccc3c2=O)cc1	-3.78%
CCCc1cnc2c(c1SCc1cccc(F)c1)c(=O)n(C)c(=O)n2C	-3.06%
Cc1oc2c(cc(NS(=O)(=O)c3ccc(Cl)cc3)c3ccccc32)c1C(=O)OCc1ccccc1	-4.61%
CCn1c(=N)n(CC(O)COc2ccccc2)c2ccccc21 (stereo not drawn)	-16.1%
Cn1c(=O)c2cc(C(=O)NC3CCCCCC3)sc2c2ccccc21	-15.5%
c1ccc(N2CCN(CC3CCCCC3)CC2)cc1	active: 68.2%

SMILES	inhibition
CC(C)(C)C(=O)COC(=O)CCc1nc2ccccc2[nH]c1=O	active: 30.6%
O=C(Cn1ncc2c3ccccc3n(Cc3ccccc3)c2c1=O)NC1CCCCCC1	6.97%
CCOc1ccc(CN2CCc3nc(N4CCN(c5ccccn5)CC4)ncc3C2)cc1OC	10.5%
COc1ccc(NC(=O)C(CC(C)C)NC(=O)C2CCCCC2)cc1 (stereo not drawn)	6.37%
COc1ccccc1NC(=O)Cn1c(=O)n(-c2cccc(C)c2)c(=O)c2c1c1cc(C)ccc1n2C	3.07%
COc1cccc(OCCNCc2ccccc2)c1	active: 41.1%
COc1ccc(N(Cc2nnc3n2CCCCC3)C(=O)Nc2cccc(C)c2)cc1Cl	0.384%
COc1ccccc1CN1CCNC(=O)C1=O	10.3%
CCN(CC)CCNC(=O)c1cc(Nc2ccc(OC)c(OC)c2)nc2ccccc12	active: 43%
Cc1ccc(N2C(=O)C(Cl)=C(Nc3c(C)n(C)n(-c4ccccc4)c3=O)C2=O)cc1	active: 32.3%
CCCOc1ccc(C2C(=O)N(C3CCCCCC3)CC(=O)N2CCC2=CCCCC2)cc1OC (stereo not drawn)	-17.3%
CCOCCn1ccc2c(OCC(=O)Nc3cccc([N+](=O)[O-])c3)cccc2c1=O	-15.6%
Cc1ccc(NC(=O)CNCc2cccs2)c(Br)c1	active: 31.6%
Cc1noc(/C=C/c2cccs2)c1S(=O)(=O)N1CCC(C(=O)NCc2ccc(Cl)cc2)CC1	-0.313%
COc1cccc(C(=O)Nc2ccccc2OCc2cc(=O)n3ccccc3n2)c1	-1.86%
Cc1cccn2c(=O)c(/C=C(\C#N)c3nc4ccccc4s3)c(Oc3ccc(F)cc3)nc12	-9.28%
Cc1cc(C)c(S(=O)(=O)Nc2ccc3oc4c(c3c2)C(=O)CC(C)(C)C4)cc1C	-11.7%
COc1cc(OC)c(NC(=O)c2cn(C3CCCC3)c(=O)c3c2c2ccccc2n3C)cc1Cl	3.35%
COc1cccc(N2CCN(C(=O)c3cc4c(OC)c(OC)c(OC)cc4[nH]3)CC2)c1	active: 37.8%
COc1cc2c(cc1OC)C(COc1ccc(F)cc1)N(C(=O)c1cccc(F)c1)CC2 (stereo not drawn)	21.1%
COc1ccc(-c2nnc(SCCC(=O)O)n2C)cc1OC	active: 34.4%
CN(C)CCCNC(=O)C(=O)NCC(c1ccc2c(c1)OCO2)N1CCOCC1 (stereo not drawn)	-18.1%
O=C(c1ccc(Br)cc1)N(Cc1cccs1)c1ccc(F)cc1	4.99%
COc1ccc(C(=O)Nc2ccc3nc(N4CCCCC4)cc(C)c3c2)c(OC)c1	5.35%
C=CCN(CC=C)CC(O)CN(c1cc([N+](=O)[O-])ccc1OC)S(=O)(=O)c1ccccc1 (stereo not drawn)	active: 66.1%

SMILES	inhibition
Cc1cn2c(=O)cc(COc3cccc(NC(=O)c4cccc(F)c4)c3)nc2s1	5.27%
CCCc1oc2ccc(NS(=O)(=O)c3ccc(OC)cc3)cc2c1C(=O)OCC	16.1%
COc1ccc(N2CCN(S(=O)(=O)CCNC(=O)Cc3ccc(-c4ccccc4)cc3)CC2)cc1	19.2%
CCOc1ccccc1CNC(=O)c1cccc(NC(=O)c2nsc3ccccc23)c1	-9.67%
Cc1ccc(C(CC(=O)Nc2ccc(C)cc2C)N2Cc3ccccc3C2=O)cc1 (stereo not drawn)	-1.71%
CCOC(=O)c1c(NC(C)=O)c2c3c(sc2n1Cc1cccc(Cl)c1)CCCC3	0.203%
COCCNC(=O)Cn1c(=O)n(-c2ccc(C)c(C)c2)c(=O)c2c3c(sc21)CCCCC3	-17.6%
CN1CCN(S(=O)(=O)c2ccc(Oc3ccc(Br)cc3F)nc2)CC1	active: 33.8%
CCOC(=O)c1cccc(NC(=O)C2CCN(c3nnc(C)c4c(C)n(-c5ccccc5)nc34)CC2)c1	9.43%
COc1ccc(NC(=O)CN2CCN(S(=O)(=O)c3ccc(Br)cc3)CC2)cc1	-10.8%
COc1ccc(Cl)cc1NC(=O)C(C)N1Cc2ccccc2C1=O (stereo not drawn)	-7.95%
O=C(Cn1c(SCc2cccc(F)c2)nc2ccncc21)Nc1ccc(Cl)cc1F	-10.8%
CCOc1cc(CNC(=O)C(NS(=O)(=O)c2cccs2)C(C)C)cc(OCC)c1OCC (stereo not drawn)	3.69%
COc1ccc(NCc2cccn2-c2nnc(N3CCOCC3)s2)c(OC)c1	5.79%
O=C(NNc1ncnc2c1cnn2-c1ccccc1)c1ccccc1	10.1%
O=C(COc1ccc(Cl)cc1)Nc1ccc2[nH]ncc2c1	active: 34.1%
CC(C)Sc1oc(-c2ccco2)nc1S(=O)(=O)c1ccccc1	active: 32.7%
Cc1ccc(C(=O)Nc2nnc(SCc3cc(=O)n4ccc(C)cc4n3)s2)cc1	-0.0962%
O=C(Cn1nc2c(cc1=O)CCCC2)NCc1ccccc1Cl	-0.105%
O=C(CN1C(=O)COc2ccc(S(=O)(=O)N3CCCCCC3)cc21)N1CCN(c2ccccc2)CC1	-7.79%
Cc1cc(C)cc(NC(=O)Cn2nnc(C(=O)NCc3ccco3)c2N)c1	6.07%
CCC(=O)N1c2nc(C(C)C)nn2C2(CCCCC2)[C@@H]2CCCC[C@@H]21	20.4%
CCCN(C(=O)CCn1cnc2onc(-c3ccc(F)cc3)c2c1=O)c1ccccc1C	-8.68%
Cc1ccc(Cl)cc1N1CCN(C(=O)Cn2nc(C)n3c(cc4sccc43)c2=O)CC1	-3.81%
COc1cccc(CNc2ccc3c(c2)ncn3C)c1OC	5.26%

SMILES	inhibition
Cc1cc(SCC(=O)NCc2ccccc2)nc(=O)[nH]1	-15.2%
CCC(=O)N1CCc2cc(S(=O)(=O)NCCC(=O)Nc3cccc(C)c3C)ccc21	-24.8%
CCOc1ccccc1NC(=O)C1CCCN(S(=O)(=O)c2ccc3c(c2)CCCN3C(C)=O)C1 (stereo not drawn)	-1.92%
COc1ccc(OC)c(CCNC(=O)C(C)n2nc(C)c3c(C)n(-c4ccc(C)cc4)nc3c2=O)c1 (stereo not drawn)	10.1%
CCc1ccc(S(=O)(=O)c2nnn3c2nc(Nc2cccc(C)c2C)c2sccc23)cc1	7.52%
COc1cc(-c2nnc(SCC(=O)N3CCCc4ccccc43)o2)cc(OC)c1OC	-2.42%
COc1ccc(N(CC(=O)Nc2ccc(Cl)cc2C)S(=O)(=O)c2ccccc2)c(OC)c1	-12.7%
O=C(NCc1ccccc1Br)c1ccc(-n2cnc3cccnc32)cc1	-0.206%
Cc1ccc(C)c(NC(=O)CSc2ccc(S(=O)(=O)N3CCCC3)cn2)c1	active: 39.1%
CCCCN(C)c1ncnc2c1cnn2-c1cccc(Cl)c1	-2.19%
CSc1ccccc1NC(=O)CCS(=O)(=O)c1nc(-c2cccs2)cc(C(F)(F)F)n1	-10.1%
COc1ccc(C(=O)N=c2sc3cc(Cl)ccc3n2C)cc1	10.5%
Cc1ccc(NC(=O)CSc2nnc(-c3cc4occc4n3C)n2-c2ccccc2C)cc1F	-0.921%
CCN(CC)CCOC(=O)c1ccc(NC(=O)CCn2c(=O)oc3ccccc32)cc1	-26.6%
Cc1ccccc1C(=O)Nc1nnc(S(=O)(=O)N2CCCc3ccccc32)s1	24.6%
COc1ccc(C(=O)N2CCC(C(=O)Nc3ccc(OC)cc3OC)CC2)cc1	2.9%
Cc1ccc(-n2c(=O)c3sccc3n(Cc3cc(=O)n4ccccc4n3)c2=O)cc1	-12.2%
O=C1C(c2ccc(C(F)(F)F)cc2)=C(Nc2ccc(Cl)cc2)c2ccccc21	-1.39%
Cc1nnsc1C(=O)Oc1ccccc1Cl	-9.03%
O=C(CN1CCC(O)(c2ccccc2)CC1)Nc1ccc2c(c1)OCCO2	active: 94.9%
Cc1ccc(CNC(=O)C(CC(C)C)N2Cc3ccccc3C2=O)cc1 (stereo not drawn)	8.05%
Cc1nc(NC(=O)c2cc(-n3cnnc3)ccc2Cl)ccc1Br	active: 30.4%
O=C(NCCSc1c(-c2ccc(Br)cc2)[nH]c2ccccc12)c1ccc(S(=O)(=O)N2CCOCC2)cc1	2.95%
